In the RNAGym collection of RNA variant scans (doi:10.1093/nar/gkz1192):
Read counts are not given, so values of variants with three or more changes are uncertain.

B1: CPEB3 Ribozyme (parent)
chain: UAACAGGGGGCCACAGCAGAAGCGUUCACGUCGCAGCCCCUGUCAGAUUCUGGUGAAUCUGCGAAUUCUGCUGUAUAUCUC

Variants of: B1
Assay: self-cleavage, relative activity (ratio to wild type); higher = more cleavage; in vitro, sequencing
Procedure, shortened: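 Barcoded CPEB3 ribozyme mutants, produced by rounds of error-prone PCR, self-cleaved while being transcribed with T7 RNA polymerase for 5 hours at 37°C and during a subsequent 15 min DNase I step before EDTA was added. Sequencing of template-switched cDNA on Illumina gave cleaved and total reads, and DNA sequencing assigned barcodes to variants. Each variant's relative activity is its cleaved/total read fraction divided by the unmutated ribozyme's fraction, averaged across three batches. A variant needed a minimum of 5 reads.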
For A21G U41A U60A, the self-cleavage was 0. Variant A21G U41A U60C A77C has a self-cleavage of 0.06. In the case of A21G U41A U66C U69C U72C, the self-cleavage is reported as 0.16. Variant A21G U41C A45G has a self-cleavage of 0.4. For A21G U41C A45U, the self-cleavage was 0.44. A21G U41C A56U C62U U72C showed a self-cleavage of 0.13. Variant A21G U41C C44U U69C has a self-cleavage of 0.07. In the case of A21G U41C C62A A65C, the self-cleavage is reported as 0.16. Variant A21G U41C U43C U60A A75U U76A has a self-cleavage of 0.25. A21G U41C U58A G73A U80C showed a self-cleavage of 0.38. Variant A21G U41C U58C has a self-cleavage of 0.22. Work on A21G U41C U58C A65C yielded a self-cleavage of 0.11. For A21G U41C U60A, the self-cleavage was 0.23. A21G U41C U60C G61A showed a self-cleavage of 0.24. A21G U41G A57G gave a self-cleavage of 0.44. A21G U43A A45G G53A A64G gave a self-cleavage of 0.42. Variant A21G U43A G52C A56G has a self-cleavage of 0.19. A21G U43A U51C A65G showed a self-cleavage of 0.21. With A21G U43A U54A U58C G61A U67A the self-cleavage was 0.21. A21G U43C A64G U66C U74C showed a self-cleavage of 0.48. For A21G U43C A65G A77U, the self-cleavage was 0.07. Variant A21G U43C A75U has a self-cleavage of 0.15. For A21G U43C U48A G52C, the self-cleavage was 0.09. In the case of A21G U43C U48A G63A A65U U69C C71G, the self-cleavage is reported as 0.04. A21G U43C U48C U69C U72C gave a self-cleavage of 0.09. In the case of A21G U43G A56G, the self-cleavage is reported as 0.09. Variant A21G U48C U49A has a self-cleavage of 0.18. In the case of A21G U48C U49C U74A C81U, the self-cleavage is reported as 0.06. Variant A21G U48C U74C has a self-cleavage of 0.58. A21G U49A A56G U67C gave a self-cleavage of 0.09. For A21G U49A A57G U72A U78C, the self-cleavage was 0.08. Variant A21G U49A U69C has a self-cleavage of 0.24. With A21G U49C A56G U72A the self-cleavage was 0.27. Work on A21G U49C A56U U67C yielded a self-cleavage of 0.2. For A21G U49C A77G, the self-cleavage was 0.14. Work on A21G U49C U54A U60A yielded a self-cleavage of 0.06. Work on A21G U49C U74A yielded a self-cleavage of 0.32. For A21G U49C U76G, the self-cleavage was 0.18. With A21G U51A A64C the self-cleavage was 0.14. A21G U51A U60C C71U gave a self-cleavage of 0.22. A21G U51C U58A A64G C68A showed a self-cleavage of 0.1. With A21G U51C U66C the self-cleavage was 0.88. For A21G U51G A57G U67C U74C A75C, the self-cleavage was 0.21. A21G U54C A56U U60C gave a self-cleavage of 0.12. For A21G U54C C71G, the self-cleavage was 0.18. A21G U54G U60A A64G A75U gave a self-cleavage of 0.13. Work on A21G U54G U69C yielded a self-cleavage of 0.18. A21G U58C G63U showed a self-cleavage of 0.12. Variant A21G U58C U78A has a self-cleavage of 0.34. In the case of A21G U60C C81U, the self-cleavage is reported as 0.42. With A21G U60G U72A the self-cleavage was 0.11. In the case of A21G U66C U80C, the self-cleavage is reported as 1.06. Variant A21G U69C A77C has a self-cleavage of 0.27. In the case of A21G U72C U78A U80C, the self-cleavage is reported as 0.65. A21U A28G A45U showed a self-cleavage of 0.1. Variant A21U A28G U48C A64G has a self-cleavage of 0.06. In the case of A21U A28G U67A, the self-cleavage is reported as 0.14. A21U A35U A45G A57U A64G showed a self-cleavage of 0.24. With A21U A35U A56G A64U U72G the self-cleavage was 0.03. In the case of A21U A35U U54G U60A U66C U80A, the self-cleavage is reported as 0.09. In the case of A21U A45G A56U U66C, the self-cleavage is reported as 0.16. A21U A45G C59U gave a self-cleavage of 0.34. Work on A21U A45G U54C yielded a self-cleavage of 0.17. A21U A45G U54C A65G gave a self-cleavage of 0.29. With A21U A45U U60C the self-cleavage was 0.18. A21U A47G A56G U67C U69C showed a self-cleavage of 0.03. A21U A47G A65G gave a self-cleavage of 0.07. A21U A47G U69C gave a self-cleavage of 0.11. Variant A21U A47U A65U has a self-cleavage of 0.08. With A21U A56G U78C the self-cleavage was 0.25. A21U A57G U74A U80C showed a self-cleavage of 0.76. In the case of A21U A65G U76A, the self-cleavage is reported as 0.19. With A21U C23G A35G U41A U78C the self-cleavage was 0.19. With A21U C23U C27U C39U U54C A75U the self-cleavage was 0.08. For A21U C23U G33C C68U, the self-cleavage was 0.12. In the case of A21U C23U U60C, the self-cleavage is reported as 0.35. Variant A21U C29U G42A U78C has a self-cleavage of 0.12. Variant A21U C29U U69C has a self-cleavage of 0.09. In the case of A21U C29U U76C, the self-cleavage is reported as 0.08. A21U C34G U51C A56U U80C showed a self-cleavage of 0.1. A21U C34U C39A U43A U48C showed a self-cleavage of 0.19. With A21U C34U U60A U67C U69A the self-cleavage was 0.11. Variant A21U C37A U41C G53A A64G has a self-cleavage of 0.15.
